Results as given in PubChem BioAssay AID1508642 (National Center for Advancing Translational Sciences (NCATS), 2021).
About 200 (0.47%) of roughly 43,000 compounds were called active. Roughly 12% stayed inconclusive and do not appear here. Calls come from the whole dose curve; as a rule, active = well fitted cell-killing curve with a large enough effect; inconclusive = small, poorly fitted or top-dose-only effect, or effect the other way; inactive = flat fitted curve, though single readings scatter. Some of the results follow.

Test: Cell viability qHTS assay in S16 Pmp22-F2sN cells; note: nearly all actives have a fitted effect of over 65% in size
Conditions: S16 Pmp22-F2sN Schwann cells (luciferase reporters placed in the Pmp22 gene) viability, CellTiter-Glo, 24 h; series mostly up to 57.5 µM; activity change, negative = cytotoxicity: at the top concentration
Method in brief: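 Luminescence from CellTiter-Glo, read by CCD camera after a 15 min room-temperature incubation, served as the viability signal. Reporter Schwann cells (S16 Pmp22-F2sN) had been treated with pin-transferred compounds for 24 h at 37C.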
% is set by controls: 0 for no effect and ±100 for the full control effect.

SMILES | activity change, negative = cytotoxicity
COc1ccc(N2CC(NC(=O)CCc3ccccc3)CC2=O)cc1OC (configuration not stated) | inactive: 10.8%
Cc1cc(C)c(NC(=O)c2cc(S(=O)(=O)N3CCN(c4ccccc4F)CC3)ccc2F)c(C)c1 | inactive: -22.4%
COc1ccc(C2c3c(n(C)c4ccccc34)C(=O)N2CC(=O)Nc2ccccc2F)cc1 (configuration not stated) | inactive: -9.79%
COc1ccc(Cl)cc1NC(=O)CN(c1cccc(C)c1C)S(=O)(=O)c1ccccc1 | inactive: -4.38%
O=C(CC1N=C2c3ccccc3N=C(SCc3ccccc3F)N2C1=O)NCc1ccc2c(c1)OCO2 (configuration not stated) | inactive: -7.97%
O=C(NCc1ccc(Cl)cc1)c1cnc2sc(N3CCCC3)nn2c1=O | inactive: 6.94%
CCOc1ccc(C(c2c(O)cc(C)n(CCOC)c2=O)N2CCC(C)CC2)cc1 (configuration not stated) | inactive: -3.5%
COc1ccc(CCNC(=O)c2ccc3c(c2)N(Cc2cccc(Cl)c2)C(=O)CS3)cc1OC | inactive: -13.3%
COc1ccc2c(c1)sc1ncc(C(=O)NCc3cccc(Cl)c3)c(=O)n12 | inactive: 3.47%
COc1cc(C)ccc1OCCn1c(-c2ccc(Cl)cc2)nc2ccccc2c1=O | inactive: 2.42%
COc1ccc(-n2c3c(cc(-c4nc(-c5ccc(Cl)cc5)cs4)c2=O)C(=O)CC(C)(C)C3)cc1 | inactive: 24.6%
Cc1ccc2scc(N3CCN(c4ccc(F)cc4)CC3)c(=O)c2c1 | inactive: 2.87%
COc1ccc(NC(=O)c2sc3nc4n(c(=O)c3c2C)CCC4)cc1Cl | inactive: 6.52%
CCc1ccc(CNC(=O)c2cc(-c3ccc(Cl)s3)nc3ccccc23)cc1 | inactive: -3.45%
Cc1ccc(N(C)S(=O)(=O)c2nnc(NC(=O)C3CCCCC3)s2)cc1 | inactive: -21.6%
Cc1ccc(CCNC(=O)c2ccc(CSCc3ccccc3Cl)o2)cc1 | inactive: -10.4%
CCOc1ccc(NC(=O)Cn2c(=O)oc3cc(S(=O)(=O)N4CCCCCC4)ccc32)cc1 | inactive: -19.8%
O=C(Cc1ccc(NC(=O)N2CCSc3ncccc32)cc1)NCCc1ccccc1 | inactive: 5.86%
COC(=O)c1cc(-c2ccc(OC)c(OC)c2)c2c(=O)[nH]c(=O)n(C)c2n1 | inactive: 11%
CCC(=O)N1CCc2cc(S(=O)(=O)NC(CC(C)C)C(=O)NCc3ccc(F)cc3)ccc21 (configuration not stated) | inactive: -13%
Cc1ccc(S(=O)(=O)c2nc(-c3ccco3)oc2SCC(=O)Nc2ccc(F)cc2)cc1 | inactive: 3.38%
O=C(CCn1c(=O)c2sccc2n(Cc2cccc(F)c2)c1=O)NCc1ccc2c(c1)OCO2 | inactive: 8.16%
Cc1ccc(NC(=O)Cn2c(=O)n(Cc3nc(C)no3)c(=O)c3cc4c(cc32)OCO4)c(Cl)c1 | inactive: 6.16%
Cc1cccc(C)c1NC(=O)Cn1c(=O)n(Cc2ccco2)c(=O)c2ccc(C(=O)NC3CCCC3)cc21 | inactive: -25.2%

SMILES | activity change, negative = cytotoxicity
CCOc1ccc(CNC(=O)C2CCCN(S(=O)(=O)N(C)c3ccc(F)cc3)C2)cc1OC (configuration not stated) | inactive: 1.31%
COc1cccc(Cn2c(NCc3ccc(C)cc3)nc3c2c(=O)n(C)c(=O)n3C)c1 | inactive: -5.96%
CC(=O)Nc1ccc(NS(=O)(=O)c2c(C)nc3sccn3c2=O)cc1 | inactive: -1.25%
CCOC(=O)c1cnc2c(ccc3ccccc32)c1Nc1ccc(Cl)cc1 | inactive: -4%
CC(=O)c1ccc(NC(=O)c2ccc(-c3nc(COc4ccc(C)cc4)c(C)o3)cc2)cc1 | inactive: -17.7%
Cc1nn(-c2ccc3nnc(C)n3n2)c(C)c1CCC(=O)Nc1ccc(OC(F)(F)F)cc1 | inactive: 6.35%
NC(=O)Cn1c(=O)n(CCCCCC(=O)NCc2ccccc2)c(=O)c2sccc21 | inactive: 2.41%
COc1ccc(-n2c(=O)c3ccccc3n(Cc3ccccc3C)c2=O)c(OC)c1 | inactive: 2.19%
Cc1ccc(-n2nc(CO)c(C(=O)NCCCc3ccccc3)n2)cc1 | inactive: -2.79%
CCOc1ccc(C(=O)c2cnc3ccc(Cl)cc3c2S(=O)(=O)c2ccc(C)cc2)cc1 | inactive: -22.7%
CCc1ccccc1Nc1nc2cc(Cl)c(Cl)cc2nc1-n1nc(C)cc1C | inactive: 2.67%
CSc1ccc(CNC(=O)CCn2c(=O)c3cccn3c3ccc(F)cc32)cc1 | inactive: 3.8%
O=C(CSc1nnc2ccc3ccccc3n12)c1ccc(F)cc1 | inactive: -2.49%
O=c1c2ccccc2n(Cc2ccccc2F)c(=O)n1-c1cccc(F)c1 | inactive: 12.9%
Cc1cccc(NC(=O)c2ccc(-c3nc(CSc4ccccc4)c(C)o3)cc2)c1C | inactive: -4.07%
COc1ccc(C(=O)Nc2ccc(-c3nc4ccccc4s3)cc2C)cc1Cl | inactive: -27.7%
COc1ccc(C(=O)N2CCC(c3nc(-c4ccc(S(=O)(=O)N5CCCC5)cc4)no3)CC2)cc1 | inactive: -12.7%
COC(=O)c1cc2occc2n1Cc1cccc(C)c1 | inactive: 0.516%
Cc1ccc(C)c(CN2C(=O)c3ccccc3S(=O)(=O)c3ccc(C(=O)N4CCN(c5ccccc5F)CC4)cc32)c1 | inactive: 1.81%
COc1ccc(CNC(=O)CCc2nnc3n(CC(C)C)c(=O)c4ccccc4n23)cc1 | inactive: 11.3%
CCS(=O)(=O)N1CCc2cc(C(=O)Nc3cc(C(F)(F)F)ccc3Cl)ccc21 | inactive: -7.78%
COc1cccc(NC(=O)Cn2c(=O)n(CCCCC(=O)NCCc3ccccc3)c(=O)c3ccccc32)c1 | inactive: 1.25%
COc1ccc(C)cc1NS(=O)(=O)c1ccc2[nH]c(=O)c(=O)[nH]c2c1 | inactive: 0.245%
